In the supplement of paper PMC9446081:
The campaign covered roughly 39,000 compounds. About 220 (0.56%) showed activity. The list shows a part of the results.

Tested on: Escherichia coli K-12 BW25113
Test: relative growth (OD600 normalised to plate interquartile mean) (fraction); higher = less growth inhibition, active = 0.2 or less
Settings: 50 µM; LB; incubation time: overnight (16-24 h)
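Further: static incubation at 37 °C against the wild-type strain, values averaged over two biological replicates.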

Row | SMILES | relative growth
1 | CO[C@H]1CN(C)C(=O)c2ccc(NC(=O)C3CC3)cc2OC[C@@H](C)N(C(=O)CN2CCOCC2)C[C@@H]1C | inactive: 1
2 | CO[C@@H](CN(C)S(=O)(=O)c1cccc(Cl)c1)[C@H](C)CN([C@@H](C)CO)S(=O)(=O)c1cccc(Cl)c1 | inactive: 1.02
3 | CC(C)NC(=O)N[C@@H]1CC[C@H](CCN)O[C@H]1CO | inactive: 0.979
4 | Cc1noc(C)c1NC(=O)Nc1ccc2c(c1)C(=O)N([C@@H](C)CO)C[C@H](C)[C@@H](CN(C)C(=O)Cc1ccccc1)OCCCC[C@@H](C)O2 | inactive: 0.996
5 | Cc1ccc(S(=O)(=O)N(C)C[C@@H]2Oc3cc(C#Cc4ccccc4)ccc3S(=O)(=O)N([C@H](C)CO)C[C@@H]2C)cc1 | inactive: 1
6 | C[C@@H]1CCCCO[C@@H](CN(C)Cc2ccc(C(F)(F)F)cc2)[C@H](C)CN([C@H](C)CO)C(=O)c2cc(NC(=O)Nc3ccc(F)cc3)ccc2O1 | inactive: 1.03
7 | COc1cc(-c2cc(=O)c3c(s2)N(Cc2ccco2)[C@@H](c2ccc(O)c(OC)c2)CC3=O)ccc1O | inactive: 1.01
8 | Cc1noc(C)c1NC(=O)N(C)C[C@H]1Oc2c(NC(=O)C3CCOCC3)cccc2C(=O)N([C@@H](C)CO)C[C@@H]1C | inactive: 0.966
9 | Cc1noc(C)c1NC(=O)Nc1ccc2c(c1)C(=O)N([C@H](C)CO)C[C@@H](C)[C@@H](CN(C)Cc1ccc3c(c1)OCO3)OCCCC[C@@H](C)O2 | inactive: 0.975
10 | C[C@@H]1CCCCO[C@@H](CN(C)Cc2ccncc2)[C@@H](C)CN([C@@H](C)CO)C(=O)c2cc(NC(=O)Cc3ccccc3)ccc2O1 | inactive: 1.01
11 | Cc1noc(C)c1NC(=O)Nc1ccc2c(c1)CC(=O)N([C@H](C)CO)C[C@@H](C)[C@@H](CN(C)C(=O)Nc1ccc(C(F)(F)F)cc1)O2 | inactive: 0.981
12 | COc1cccc(C(=O)Nc2ccc3c(c2)C(=O)N(C)[C@@H]2CC[C@H](CC(=O)NCCCN4CCOCC4)O[C@H]2CO3)c1 | inactive: 0.993
13 | Cc1noc(C)c1NC(=O)Nc1ccc2c(c1)C(=O)N([C@H](C)CO)C[C@H](C)[C@@H](CN(C)S(=O)(=O)c1cn(C)cn1)O2 | inactive: 0.997
14 | Cn1c(N)c(C(=O)c2ccco2)c(=O)n(C)c1=O | inactive: 0.981
15 | COc1ccc([C@H]2CC=CC[C@H](C)Oc3ccccc3C(=O)N(C)[C@@H](Cc3ccccc3)C(=O)N2)c(OC)c1 | inactive: 1.01
16 | C[C@@H]1CN([C@@H](C)CO)C(=O)c2cc(C#Cc3ccccc3)cnc2O[C@@H]1CN(C)C(=O)CCN1CCCCC1 | inactive: 1.02
17 | C[C@H]1CN([C@@H](C)CO)C(=O)c2cc(NC(=O)CCCCCC(=O)Nc3ccccc3N)ccc2O[C@@H]1CN(C)C(=O)Nc1ccc(C(F)(F)F)cc1 | inactive: 1
18 | Cc1ccc(S(=O)(=O)Nc2ccc3c(c2)C(=O)N([C@@H](C)CO)C[C@@H](C)[C@H](CN(C)S(=O)(=O)c2cn(C)cn2)O3)cc1 | inactive: 0.983
19 | C[C@H](CO)N1C[C@H](C)[C@H](CN(C)S(=O)(=O)c2ccc(F)cc2)Oc2ccc(NC(=O)Nc3cccc4ccccc34)cc2CC1=O | inactive: 1.04

Row | SMILES | relative growth
20 | CC(C)(N)c1cn(CC2CCN(C(=O)c3ccccc3-n3cccn3)CC2)nn1 | inactive: 1
21 | C[C@@H]1CN([C@@H](C)CO)C(=O)CCCn2cc(nn2)CO[C@H]1CN(C)S(=O)(=O)c1ccc2c(c1)OCCCO2 | inactive: 1
22 | C[C@@H]1CCCCO[C@H](CN(C)S(=O)(=O)c2ccc(Cl)cc2)[C@@H](C)CN([C@@H](C)CO)C(=O)c2cc(NC(=O)Nc3ccc(C(F)(F)F)cc3)ccc2O1 | inactive: 0.989
23 | CN(C)CCCCNC(=O)[C@H]1C[C@H]2C(=O)N3CCC[C@H]3C(=O)N2[C@H]1c1cccc(OCCO)c1 | inactive: 0.99
24 | C[C@H](CO)N1C[C@H](C)[C@H](CN(C)C(=O)NC2CCCCC2)OCCCC[C@H](C)Oc2ccc(NC(=O)Nc3ccc(C(F)(F)F)cc3)cc2C1=O | inactive: 1.02
25 | COc1cccc(CNC(=O)C[C@@H]2C=C[C@@H](NC(=O)C3CCOCC3)[C@@H](CO)O2)c1 | inactive: 0.983
26 | C[C@@H]1CN([C@@H](C)CO)C(=O)c2cc(NS(=O)(=O)c3cccs3)ccc2O[C@@H](C)CCCCO[C@@H]1CN(C)C(=O)CCC(F)(F)F | inactive: 1.03
27 | Cc1ccc(S(=O)(=O)Nc2ccc3c(c2)C(=O)N([C@@H](C)CO)C[C@@H](C)[C@H](CN(C)S(=O)(=O)c2ccc(Cl)cc2)OCCCC[C@@H](C)O3)cc1 | inactive: 1.01
28 | C[C@H](CO)N1C[C@H](C)[C@H](CN(C)S(=O)(=O)c2ccc(Cl)cc2)OCCCC[C@H](C)Oc2ccc(NS(=O)(=O)c3ccccc3)cc2C1=O | inactive: 1
29 | COc1ccc2c3c(n(c2c1)C)[C@H](CO)N(C[C@]13CCN(CC1)C(=O)C1CCOCC1)C(=O)C1CCOCC1 | inactive: 0.967
30 | COc1ccc2c3c(n(c2c1)C)[C@H](CO)N(Cc1ccccc1Cl)C[C@]13CCN(CC1)C(=O)CC1CC1 | inactive: 0.953
31 | C[C@@H]1CN([C@@H](C)CO)S(=O)(=O)c2ccc(C#Cc3cccnc3)cc2O[C@@H]1CN(C)CC1CCOCC1 | inactive: 1
32 | O=C(C[C@H]1C[C@@H]2c3cc(NC(=O)Cc4ccncc4)ccc3O[C@@H]2[C@@H](CO)O1)NCc1ccc2c(c1)OCO2 | inactive: 0.999
33 | CCc1nnc(N)o1 | inactive: 0.986
34 | O=c1c(O)nnc2n1CCN2c1ccccc1 | inactive: 0.954
35 | C[C@H]1CCCCO[C@@H](CN(C)Cc2ccccc2)[C@@H](C)CN([C@@H](C)CO)C(=O)c2cc(NC(=O)Nc3ccccc3)ccc2O1 | inactive: 0.952
36 | COc1cccc(S(=O)(=O)Nc2ccc3c(c2)[C@@H]2C[C@@H](CC(=O)NCc4cccc(F)c4)O[C@@H](CO)[C@@H]2O3)c1 | inactive: 0.988
37 | C[C@@H]1CN([C@H](C)CO)C(=O)Cc2cc(NC(=O)c3ccncc3)ccc2O[C@H]1CN(C)Cc1ccc2c(c1)OCO2 | inactive: 1.02
38 | COc1cc(C(=O)O[C@H]2CC[C@@]3(C)[C@@H]4CC[C@H]5[C@]6(O)C[C@H](O)[C@@]7(O)[C@@H](CN8C[C@@H](C)CC[C@H]8[C@@]7(C)O)[C@]6(O)C[C@@]53O[C@@]24O)cc(OC)c1OC | inactive: 0.989
